In the antibiotic and cytotoxicity screens of Wong et al. (2023) one finds cytotoxicity call and growth inhibition call data, which are given here for 28 compounds.

The subject of one experiment is HSkMC. Description: cytotoxicity call (relative viability < 0.9). The conditions noted are these: 10 µM.
For the next experiment, the system named is HepG2. Description: cytotoxicity call (relative viability < 0.9). The conditions noted are these: 10 µM.
The subject of a further experiment is S. aureus RN4220. Description: growth inhibition call (relative growth <= 0.2). As to conditions: 50 µM.

The structures appear in SMILES notation. This is one part of the list.

Turning to `Cc1noc(C)c1NC(=O)Nc1ccc2c(c1)CC(=O)N([C@@H](C)CO)C[C@H](C)[C@@H](CN(C)C(=O)Nc1ccc(C(F)(F)F)cc1)O2`, the cytotoxicity call in the experiment on HSkMC and in the experiment with HepG2 was “inactive” throughout. For the same compound, the growth inhibition call with S. aureus RN4220 is “inactive”.
For the compound `C[C@@H]1CCCCO[C@@H](CN(C)C(=O)Nc2ccc3c(c2)OCO3)[C@H](C)CN([C@H](C)CO)C(=O)c2cc(NC(=O)Nc3cccc4ccccc34)ccc2O1`, the cytotoxicity call in the experiment on HSkMC and in the experiment on HepG2 was “inactive” throughout. In addition, in the experiment with S. aureus RN4220, the growth inhibition call is “inactive”.
For the compound `CC(C)(O)C#Cc1ccc([C@H]2[C@@H](CO)N3CCCCN(S(C)(=O)=O)C[C@H]23)cc1`, the cytotoxicity call with HSkMC and with HepG2 was “inactive” throughout. The growth inhibition call in the experiment on S. aureus RN4220 was “inactive”.
With `C[C@@H](NC(=O)C[C@@H]1C=C[C@H](NC(=O)CN2CCOCC2)[C@@H](CO)O1)c1ccccc1`, the cytotoxicity call in the experiment on HSkMC and in the experiment on HepG2 was “inactive” throughout. In addition, the growth inhibition call in the experiment with S. aureus RN4220 is “inactive”.
With `Cc1cc(CCC[C@H](CC(=O)NO)C(=O)N[C@H](C(=O)N[C@H](C)c2ccccc2)C(C)(C)C)ccc1-c1ccccc1`, the cytotoxicity call in the experiment on HSkMC was “inactive”. Also, the cytotoxicity call in the experiment with HepG2 is “active”. For the same compound, the growth inhibition call in the experiment with S. aureus RN4220 is “inactive”.
Take `COc1ccc(CN(C)C[C@@H]2Oc3ccc(NS(C)(=O)=O)cc3CC(=O)N([C@H](C)CO)C[C@H]2C)cc1`: the cytotoxicity call in the experiment with HSkMC and in the experiment with HepG2 was “inactive” in each case. In the experiment on S. aureus RN4220, the growth inhibition call was “inactive”.
With `C[C@@H]1CN([C@@H](C)CO)C(=O)c2cc(NC(=O)Cc3ccccc3)ccc2O[C@@H]1CN(C)Cc1ccc(C(=O)Nc2ccccc2N)cc1`, the cytotoxicity call in the experiment on HSkMC and in the experiment with HepG2 was “inactive” in each case. Moreover, the growth inhibition call in the experiment on S. aureus RN4220 was “inactive”.
`c1ccc(-c2n[nH]c3c2CCC3)cc1`: the cytotoxicity call with HSkMC and with HepG2 was “inactive” throughout. Besides, the growth inhibition call with S. aureus RN4220 is “inactive”.
For the compound `CC(C)NC(=O)Nc1ccc2c(c1)CC(=O)N([C@@H](C)CO)C[C@@H](C)[C@H](CN(C)S(=O)(=O)c1ccc(F)cc1)O2`, the cytotoxicity call with HSkMC and in the experiment on HepG2 was “inactive” throughout. Further, the growth inhibition call with S. aureus RN4220 was “inactive”.
As to `C[C@@H]1CCCCO[C@@H](CN(C)Cc2ccc3c(c2)OCO3)[C@@H](C)CN([C@@H](C)CO)C(=O)c2cc(NC(=O)Nc3ccc(C(F)(F)F)cc3)ccc2O1`, the cytotoxicity call in the experiment with HSkMC and in the experiment with HepG2 was “active” each time. Besides, the growth inhibition call with S. aureus RN4220 was “inactive”.
For `N=C(N)NCCNS(=O)(=O)c1cccc2cnccc12`, the cytotoxicity call in the experiment with HSkMC was “inactive”. Besides, the cytotoxicity call in the experiment on HepG2 was “active”. In addition, the growth inhibition call with S. aureus RN4220 is “inactive”.
Turning to `C[C@H](CO)N1C[C@H](C)[C@@H](CN(C)C(=O)NC2CCCCC2)Oc2c(NC(=O)C3CCOCC3)cccc2C1=O`, the cytotoxicity call in the experiment on HSkMC and in the experiment on HepG2 was “inactive” throughout. In the experiment with S. aureus RN4220, the growth inhibition call was “inactive”.
Consider `CN(c1ncccc1CNc1nc(Nc2ccc3c(c2)CC(=O)N3)ncc1C(F)(F)F)S(C)(=O)=O`, for which the cytotoxicity call with HSkMC and in the experiment on HepG2 was “active” throughout. The growth inhibition call in the experiment with S. aureus RN4220 is “inactive”.
In the case of `CCN1CC[C@]2(CN(S(C)(=O)=O)CC23CCN(Cc2cnn(C)c2)CC3)C1=O`, the cytotoxicity call in the experiment with HSkMC and in the experiment with HepG2 was “inactive” throughout. Besides, the growth inhibition call in the experiment with S. aureus RN4220 is “inactive”.
As for `Cc1ccc(S(=O)(=O)Nc2ccc3c(c2)C(=O)N([C@@H](C)CO)C[C@H](C)[C@H](CN(C)C(=O)C2CCCCC2)OCCCC[C@H](C)O3)cc1`, the cytotoxicity call in the experiment with HSkMC and in the experiment with HepG2 was “inactive” throughout. Moreover, in the experiment with S. aureus RN4220, the growth inhibition call was “inactive”.
With `CO[C@@H]1CN(C)C(=O)c2ccc(NC(=O)CC(F)(F)F)cc2OC[C@@H](C)N(S(=O)(=O)c2cn(C)cn2)C[C@@H]1C`, the cytotoxicity call with HSkMC and with HepG2 was “inactive” in each case. Also, in the experiment with S. aureus RN4220, the growth inhibition call was “inactive”.
As for `COS(=O)(=O)[O-].COc1cc(N)cn[n+]1-c1ccccc1`, in the experiment with HSkMC, the cytotoxicity call was “inactive”. Moreover, the cytotoxicity call in the experiment with HepG2 was “active”. Moreover, in the experiment on S. aureus RN4220, the growth inhibition call is “inactive”.
With `C[C@@H]1CN([C@H](C)CO)C(=O)c2cc(NC(=O)C3CCCCC3)ccc2O[C@@H](C)CCCCO[C@@H]1CN(C)Cc1ccc(C(F)(F)F)cc1`, the cytotoxicity call in the experiment with HSkMC and in the experiment on HepG2 was “inactive” in each case. Besides, the growth inhibition call in the experiment with S. aureus RN4220 was “inactive”.
Consider `C[C@@H]1CN([C@@H](C)CO)C(=O)Cc2cc(NC(=O)Cn3cnnn3)ccc2O[C@@H]1CN(C)C(=O)Nc1ccc2c(c1)OCO2`, for which the cytotoxicity call in the experiment on HSkMC and with HepG2 was “inactive” throughout. For the same compound, the growth inhibition call in the experiment with S. aureus RN4220 is “inactive”.
Consider `Cc1cc(C(=O)Nc2cccc3c2O[C@@H](CN(C)Cc2ccc4c(c2)OCO4)[C@H](C)CN([C@@H](C)CO)C3=O)n(C)n1`, for which the cytotoxicity call in the experiment on HSkMC and with HepG2 was “inactive” in each case. Moreover, the growth inhibition call in the experiment on S. aureus RN4220 was “inactive”.
As for `C=CCN(C#N)c1nc(N(C)C)nc(N(C)C)n1`, the cytotoxicity call with HSkMC and in the experiment with HepG2 was “inactive” throughout. For the same compound, the growth inhibition call in the experiment with S. aureus RN4220 was “inactive”.
As to `Cc1noc(C)c1NC(=O)N(C)C[C@@H]1OCCCC[C@H](C)Oc2ccc(NC(=O)Cc3ccccc3)cc2C(=O)N([C@H](C)CO)C[C@@H]1C`, the cytotoxicity call in the experiment with HSkMC and with HepG2 was “inactive” throughout. In the experiment with S. aureus RN4220, the growth inhibition call is “inactive”.
With `COc1ccc(NC(=O)N(C)C[C@H]2Oc3ccc(NC(=O)Nc4ccc(C(F)(F)F)cc4)cc3CC(=O)N([C@H](C)CO)C[C@@H]2C)cc1`, the cytotoxicity call in the experiment with HSkMC and in the experiment with HepG2 was “inactive” throughout. The growth inhibition call in the experiment with S. aureus RN4220 was “inactive”.
As for `C[C@H](CO)N1C[C@H](C)[C@H](CN(C)Cc2ccc3c(c2)OCO3)Oc2ccc(NS(=O)(=O)c3ccccc3)cc2CC1=O`, the cytotoxicity call in the experiment on HSkMC (human skeletal muscle cells) and in the experiment on HepG2 was “inactive” in each case. Besides, the growth inhibition call in the experiment on S. aureus RN4220 was “inactive”.
Consider `C=C[C@@H](COC(=O)OC(C)(C)C)N(Cc1ccc(OC)cc1)S(=O)(=O)c1ccc(Br)cc1`, for which the cytotoxicity call with HSkMC and with HepG2 was “inactive” in each case. Also, in the experiment on S. aureus RN4220, the growth inhibition call is “inactive”.
With `C[C@H]1CN([C@@H](C)CO)S(=O)(=O)c2ccc(-c3ccccc3F)cc2O[C@H]1CN(C)S(C)(=O)=O`, the cytotoxicity call with HSkMC and in the experiment with HepG2 was “inactive” each time. The growth inhibition call with S. aureus RN4220 is “inactive”.
Regarding `Cc1ccc(CN2CCN(CCO)CC2)o1`, the cytotoxicity call in the experiment with HSkMC and in the experiment on HepG2 was “inactive” throughout. Also, the growth inhibition call in the experiment on S. aureus RN4220 was “inactive”.
As for `COCC(=O)Nc1ccc2c(c1)C(=O)N(C)C[C@H](OC)[C@@H](C)CN(C(=O)Cc1ccccn1)[C@@H](C)CO2`, the cytotoxicity call in the experiment with HSkMC and in the experiment with HepG2 was “inactive” throughout. In addition, in the experiment on S. aureus RN4220, the growth inhibition call is “inactive”.
